Measurements published in the supplement of paper PMC11417369.
This is one part of the list.

Test system: PfAP2-HC AP2 domain (GST-tagged)
Test: gcPBM binding intensity (ln(normalized median fluorescence intensity)); higher = stronger DNA binding
Procedure, shortened: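 Binding intensity values are the highest Masliner-normalised natural-log median intensity among replicate spots of either probe orientation. The binding step lasted 1 h in 1× PBS with 1% milk, 0.2 mg/ml BSA, 0.5% salmon testes DNA and 0.03% Triton X-100, using GST-tagged P. falciparum DNA-binding domains expressed in E. coli on an Agilent 4 × 180k array of primer-extended double-stranded 36-bp intergenic genomic probes plus negative controls. Alexa488 anti-GST antibody and a 488 nm scan detected bound protein.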

Sequence | gcPBM binding intensity (ln)
ATGTTTTAATGAGGTTTGCACTATATTTTAATGAAC | 9.64
AACATATATACAGTAACACACACAAAAAAATATGAA [CACACA_site9323] | 10.4
AAAAAACAAAAACACACACACACATATATATATATA [CACACA_site3654] | 10.9
ATCACTAACATGTGTTGTACATAAAATTTGTTTGTT [XGTACX_site2207] | 9.74
TTAACTTTTATATAGTGTACAAATAAATGCATACAG [XGTACX_site5958] | 9.56
TTATTATTTAACATGTGGACACAAAAATTTAAGGGT [XGTACX_site4638] | 9.61
TGCAAATTTAACAAAAAAAAAAAAAAAAAAAAAAAA [GTGCAC_negctrl_site64] | 8.76
TCTACTACTTAATGGAGTACTAGCTTCATAATATTA [XGTACX_site7030] | 9.52
TGAACACAGACAAATACACACAAAAAAAATAAATAA [CACACA_site4298] | 10
TATTATGTATAAAGAAGTACTTTTTTTTTTTTTTTC [XGTACX_site201] | 9.4
AAAAAATGGCTAGTTTGTACACAAAAGTTATTGCAT [XGTACX_site5381] | 9.92
ATATAATATACTTATTGTACTTATTTAAAATACTAA [XGTACX_site4266] | 9.58
AAAAAAAAATAAAAATGTACATATATAATATTATAT [XGTACX_site71] | 9.77
TTTCTCAATTCTTAGAGTACATAAATAAAAAAAAAA [XGTACX_site7639] | 9.29
AAGATAAAATTATGCACACATACGAATAATTTTAAA [CACACA_site1705] | 9.78
TTTTACAATAACAATACACACTATAATATATATATA [CACACA_site4893] | 9.73
CATATATATAAATACACACACACACCCCTTATAATT [CACACA_site4064] | 10.6
TAGGAGCCGAAACACACACACAAAAAAAAAAAAAAA [CACACA_site1731] | 9.96
AAAAGAATTTGAAGTCGTACAATATCTATTATATGA [XGTACX_site8275] | 9.55
ATACCAATAATATACATACACACATAAAGGTTTATA [CACACA_site314] | 9.9
AAGAAAAACTAAAGAGTTCTGTTCATATCTCTTTGG [TGCATGCA_negctrl_site549] | 9.46
GGTATTACCTGTTTGTTATGTAGATGTTGCTAGGAT [GTGCAC_negctrl_site736] | 9.58

Sequence | gcPBM binding intensity (ln)
TAATTCTTTATAATAACACACATTCATATACAATAA [CACACA_site2499] | 9.66
ACTTAAATAATACATACACACATGTACATACAGAAA [CACACA_site1595] | 10.2
TATTTATATAGACACACACACATATATTTATATTTT [CACACA_site7240] | 10.4
TTTACATTTAATAAAAGTACTTATTTCATATACATA [XGTACX_site659] | 9.36
TATATCAAATTCTAAACATGCACAAAAAACTTATAA [TGCATGCA_site510] | 9.51
AAGGAAAAACCATTCGCACACACACCGAATATATAA [CACACA_site8403] | 10.2
ATAATAATTTTATGCACACAGAAAAATACAAGGTTA [CACACA_site3510] | 9.94
TTATTGGTTATATAAAGTACATTTGAAATATAATTG [XGTACX_site6553] | 9.48
TTGCCTGACTTGTTCACACATATTTATGATATACAT [CACACA_site5783] | 9.97
TTTTCTTGGTATATGATTTATCCTAAATAAGTAAAT [CACACA_negctrl_site294] | 9.2
AAAAAAAATATATATATTAAAGTTTTAATTTTTATA [CACACA_negctrl_site497] | 9.5
TTAGAATTTAGAGAAGTGCATATTAAGTTACGAATT [GTGCAC_site9861] | 9.53
ATTATATATATATATAGTACTTTTTTTTTTTTTTTT [XGTACX_site8801] | 9.45
AATATACACCCGTGTACACAAATATTTACAAAACGT [CACACA_site4786] | 9.85
GTTACACCAACAAACACACACACACCCACCCACAAA [CACACA_site2427] | 10.6
AAAAGGAATGAAAATTCACACAACTATAAATACATA [CACACA_site5337] | 9.81
TGTATTATAATATTATGTACTTATAAATTTTATATT [XGTACX_site6432] | 9.59
AATTTAAAGTTTTTTTTTTTTTTTTTTTTTTTTTTG [CACACA_negctrl_site1082] | 9.16
TGGGTGGTAAAAATGTGTACATAAAAAAATAATGTT [XGTACX_site2235] | 9.69
TCTCACATTCTTATGGGTACACATGAGAAATTATAA [XGTACX_site6799] | 9.37
ATATTATTATAAAGTGGTACAATAAATGGTATTATA [XGTACX_site391] | 9.63
TAAGCGTTTTTTAAAACACACATAAGAACTAAATGA [CACACA_site1670] | 9.63

Sequence | gcPBM binding intensity (ln)
TATTTTCCATGAGGTAGTACACATTAAAAAATCGTT [XGTACX_site6887] | 9.52
TTTCTTAAACCGTACAGTACACACCTTTATAATGTT [XGTACX_site434] | 9.87
TAATATTAAAAAGAGACACACAAAAATATTAAAAAA [CACACA_site3120] | 9.89
TTACACCTTAGGATCTGTACAAATATATGACAAATC [XGTACX_site4333] | 9.47
AAGGTTTTGGGTTTTAATTAATTTAATATGATTATA [XGTACX_negctrl_site147] | 9.8
ATATTAAATATATACAGTACACATTACAATACAATA [XGTACX_site3221] | 9.82
CTTTGTAGTTGGTCCACACACATATCTGGAAGAATA [CACACA_site4834] | 9.72
AGAATTATATACACAAGTACATAATGACATATATAT [XGTACX_site5617] | 9.73
TAGATGTATTTTTAAAGTACTTTTTAATATATAATC [XGTACX_site1431] | 9.48
TAAAAAATTATATTCACACACATACACATATATATA [CACACA_site545] | 10.3
CGACTTTTAAAATATACACACATATAAATAAATATA [CACACA_site6523] | 9.74
TTACAATATAATAAATGTACATATAACAAATATATA [XGTACX_site2199] | 9.69
TTTTTTTTTTTTTGTAGTACATACTATTTTATTAAT [XGTACX_site950] | 9.58
TATATATGCATTAAAGTGTTTTTTTTTTTTTTTTTT [CACACA_negctrl_site1353] | 9.55
TGTATAACCATAAATTGTACAGAAAAAAGTATAAAA [XGTACX_site1493] | 9.65
TTAAAAAATATATACGTTGATATAATACAACTTGAC [CACACA_negctrl_site1551] | 9.58
ATGTGTATATGTTAATGTACAAATTTTGAAAATGCC [XGTACX_site2685] | 9.86
ATTTTTTTTTTTTATGGTACACACACGCGTATGGTT [XGTACX_site3888] | 10.6
CATCTGGTATCTAATAGTACATATATATAATATCTT [XGTACX_site2774] | 9.67
AACAAAAGAAAAAAATATATATATTCGTCCTATTTT [CACACA_negctrl_site444] | 9.62
TTTCAACTTTTGTCATGTACACATAATTTTATTGCA [XGTACX_site6701] | 9.86
ATTTATTTATCAAATATTATCTTAAAAAAAAAAGAA [CACACA_negctrl_site1345] | 9.18

Sequence | gcPBM binding intensity (ln)
TAATTAAATACATTAACACACACACTAATATATACA [CACACA_site8938] | 10.3
TTCCTGTTAATTACAACACACAATTTTTATTTTATG [CACACA_site779] | 10.1
TACCAAAAAAAAAAAAATAAAAATAAAAAAAAAAAT [CACACA_negctrl_site1714] | 9.47
AAAATAAAAATAAAAGCACACATAAATATATATATA [CACACA_site8409] | 9.94
CTTTATTATAAGATTACACACATGTCTTATAATTTA [CACACA_site5715] | 9.98
TAAAAGTTTTTATACATACACACCTATAAATTAAGT [CACACA_site2446] | 9.78
TAACTATTATAAAAATGTACAAATGAAAATATTTTT [XGTACX_site1438] | 9.59
ATTTTTTTGGTAATTTGTACATAATATATACATAAT [XGTACX_site3742] | 9.68
AAAATTAAAACCTACACACACATTTAAAAAAAAAAA [CACACA_site3068] | 10.1
TTTTTTTTTTTTACATGTACTTATTTTAAATATAAA [XGTACX_site805] | 9.71
TATATTTATTTAAAAACATGCATTTTTTTTTTCCGT [TGCATGCA_site44] | 9.53
TATATTATAGGTTGTGTACACATATTATATAGTACT [CACACA_site4583] | 9.75
ATATATTTATAGACTTGTACATATATATACGATATA [XGTACX_site8890] | 9.59
AAGGCATGACTATCTGCACACATAAAAATAAGAAAT [CACACA_site8180] | 9.92
AATTTTTTTTTTTTGTGTCCTCATAATTCTTCATTC [XGTACX_site5042] | 9.59
TAAACATAATAATATACACACATATATTGATATATA [CACACA_site2144] | 9.76
TAAAAAAAAATATAATGTACGTATAAATATATATTA [XGTACX_site5085] | 9.66
ATACACATAACATATATATATATATATATATATATC [CACACA_negctrl_site278] | 9.93
TATATATATATAAACGCATGTAATTTATACACACAT [TGCATGCA_site946] | 9.81
ATCTTTCCTTTTGCATGTACATATGGAAATACTTTT [XGTACX_site6995] | 9.83
ATAATTAAGTTATGTGTGCACTGTTAAAAATAAATG | 9.97
TTTTTTATTTTTTACATATTTAGCTCATATTTATAT [GTGCAC_negctrl_site491] | 9.83
